PubChem BioAssay AID651820 (National Center for Advancing Translational Sciences (NCATS), 2012)
Hit rate of the full screen: of about 340,000 compounds, about 12,000 (3.5%) were called active. The shares of active, inactive and inconclusive entries below differ from those in the screen. Calls follow the shape of the dose curve; as a rule, active = well fitted inhibition curve with a large enough effect; inconclusive = small, poorly fitted or top-dose-only effect, or another doubt; inactive = no such curve, though single readings can be large or run the other way. No potency is given beside an inconclusive call; the fits are too rough.
Potency is read from the fitted curve at half-maximal effect; tags tell the direction and shape of the fitted curve.

Experiment: qHTS Assay for Inhibitors of Hepatitis C Virus (HCV)
Conditions: Huh7.5.1 HCVcc-Cre (HCVcc is cell-culture hepatitis C virus) infection, luciferase reporter, 44 h; series mostly up to 41.8 µM
Outline: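 Cells (1,000/well) were plated 4 h before compound, then infected with HCVcc-Cre virus (~0.5 moi). After 44 h further culture, infection was read as luciferase luminescence following a 15 min substrate incubation at room temperature.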
With `COc1ccc2oc(C(=O)OCC(=O)N(C)C3CCS(=O)(=O)C3)c(C)c2c1` (stereo unspecified) the Potency was inconclusive [inhibitor, partial curve]. With `O=C(c1cc([N+](=O)[O-])ccc1Cl)N1CCN(c2ccc([N+](=O)[O-])cc2)CC1` the Potency was inconclusive [inhibitor, partial curve]. In the case of `CN(C)C(CNc1ccc(C(N)=O)cc1[N+](=O)[O-])c1ccccc1` (stereo unspecified), the Potency is reported as “inactive”. With `O=C1Nc2ccc(S(=O)(=O)NCc3ccccn3)c3cccc1c23` the Potency was “inactive”. With `COc1cccc(NC(=O)CSc2nc3c([nH]c4ccccc43)c(=O)n2C)c1` the Potency was inconclusive [inhibitor, partial curve]. In the case of `S=C(Nc1ccccc1)Nc1ccc(OCc2ccc(Cl)cc2Cl)cc1`, the Potency is reported as inconclusive [inhibitor, single point]. In the case of `Cc1cc(C(=O)Cn2nc(C(=O)O)c3ccccc3c2=O)c(C)n1CCc1ccc(F)cc1`, the Potency is reported as “inactive”. With `CCCn1c(-c2cccs2)nc2c1c(=O)[nH]c(=O)n2Cc1ccccc1` the Potency was inconclusive [inhibitor, single point]. In the case of `O=C(O)c1ccccc1C(=O)Nc1nc(-c2ccc3ccccc3c2)cs1`, the Potency is reported as inconclusive [inhibitor, single point]. With `CSc1nc2[nH]c(=O)n(O)c(=O)c2n1Cc1ccccc1` the Potency was “inactive”. With `O=C(O)c1ccc(NC(=O)C(c2ccccc2)c2ccccc2)cc1` the Potency was “inactive”. For `COc1ccc(CNS(=O)(=O)c2ccc3c(c2)CC(C)N3C(=O)C2CC2)cc1` (stereo unspecified), the Potency was active: 22.4 µM. With `O=C(Nc1ccccc1Br)c1ccc(N2CCCC2=O)cc1` the Potency was “inactive”. In the case of `CCOc1ccc(Cc2nc(-c3nonc3N)no2)cc1OCC`, the Potency is reported as inconclusive [inhibitor, partial curve]. With `COc1ccc(-c2csc(N(CCc3ccc(OC)c(OC)c3)C(=O)COc3ccccc3)n2)cc1` the Potency was “inactive”. In the case of `CCn1c(CC(=O)Nc2cccc(OC)c2)nnc1SCC(=O)Nc1nccs1`, the Potency is reported as inconclusive [inhibitor, single point]. In the case of `Cn1c(COc2cccc3cccnc23)nnc1SCC(=O)O`, the Potency is reported as “inactive”. In the case of `CC1CCCC(C)N1C(=C(Cl)Cl)C(=C1SCCS1)[N+](=O)[O-]` (stereo unspecified), the Potency is reported as inconclusive [inhibitor, single point]. With `CCC1CCC(N2CCN(c3ccc(F)cc3)CC2)CC1` (stereo unspecified) the Potency was inconclusive [inhibitor, single point]. In the case of `COc1cc(N=Nc2ccc(C(=O)N(C)C)cc2)c(C)cc1N`, the Potency is reported as inconclusive [inhibitor, single point]. For `CC(C)N1C(=O)/C(=C\c2nc3ccccc3c(=O)n2-c2ccccc2)c2ccccc21`, the Potency was inconclusive [inhibitor, single point]. With `Cc1sc(NC(=O)CN(Cc2ccccc2)C(=O)C2CC2)c(C(N)=O)c1C` the Potency was inconclusive [inhibitor, single point]. In the case of `COc1ccc(N2CCN(C(=O)CC34CC5CC(CC(C5)C3)C4)CC2)c([N+](=O)[O-])c1`, the Potency is reported as inconclusive [inhibitor, single point]. For `CCC(=O)Nc1cccc(NC(=O)CSc2nnc(-c3ccc(NS(C)(=O)=O)cc3)n2CC)c1`, the Potency was inconclusive [inhibitor, single point]. With `Cc1nn(Cc2ccccc2)c(C)c1C(=O)N1CCN(CC(=O)Nc2ccccc2Cl)CC1` the Potency was “inactive”. With `C=CCN(c1ccccc1)S(=O)(=O)c1cccc(C(=O)NCc2ccco2)c1` the Potency was inconclusive [inhibitor, full curve, poor fit]. For `CCc1c(C(=O)Nc2cc(C(=O)OC)ccc2C)csc1C`, the Potency was inconclusive [inhibitor, single point]. For `CCCCCCCCOc1ccc(C(=O)O)cc1`, the Potency was active: 6.31 µM. For `Cc1ccsc1/C=N/NC(=O)c1ccc2c(c1)OCCO2`, the Potency was “inactive”. For `CCOC(=O)c1c(NC(=O)CSc2ncnc3ccccc23)sc(C(C)=O)c1C`, the Potency was active: 11.2 µM. With `COc1ccc(C2CC(c3ccccc3)=NN2c2ccc(S(N)(=O)=O)cc2)cc1` (stereo unspecified) the Potency was inconclusive [inhibitor, single point]. For `O=C1[C@H]2[C@@H](c3ccc(F)cc3)N3C(=O)N(c4cccc(F)c4)C(=O)[C@@]3(Cc3ccccc3)[C@H]2C(=O)N1C1CCCCC1`, the Potency was “inactive”. In the case of `CN(CC(=O)Nc1ccccc1Cl)C(=O)COC(=O)CSc1ccc(Cl)cc1`, the Potency is reported as “inactive”. In the case of `Cc1nonc1NC(=O)CSc1nc2ccccc2cc1C#N`, the Potency is reported as inconclusive [inhibitor, single point]. In the case of `Cc1cc(SCC(=O)c2ccc(O)c(O)c2)nc2ccccc12`, the Potency is reported as inconclusive [inhibitor, single point]. In the case of `CC(C)COP(=O)(OCC(C)C)C(Nc1ccccc1)c1ccc2c(c1)OCO2` (stereo unspecified), the Potency is reported as inconclusive [inhibitor, single point]. In the case of `NC(=O)C1CCN(CC(=O)Nc2ccccc2Sc2ccccc2)CC1`, the Potency is reported as “inactive”. In the case of `Cc1ccc(C(=O)Nc2cc3c(cc2N2CCCCC2)n(C)c(=O)n3C)cc1`, the Potency is reported as inconclusive [inhibitor, full curve]. In the case of `O=C(CCCn1c(SCC(=O)NC2CCCCC2)nc2ccccc2c1=O)NCC1CCCO1` (stereo unspecified), the Potency is reported as “inactive”. For `CC(C)CCc1noc(CN2CCC(C(=O)N3CCOCC3)CC2)n1`, the Potency was “inactive”. With `CCC(=O)N1N=C(c2cccs2)CC1c1ccco1` (stereo unspecified) the Potency was inconclusive [inhibitor, single point]. In the case of `O=C(Nc1cccc(Cl)c1)c1ccc(F)c(S(=O)(=O)NCc2ccc3c(c2)OCO3)c1`, the Potency is reported as “inactive”. In the case of `CCN(C(=O)CSc1nnc(-c2cccs2)n1CC)C1CCS(=O)(=O)C1` (stereo unspecified), the Potency is reported as “inactive”. For `COc1cc(C(=S)N2CCCCC2)ccc1OCC(=O)Nc1ccc(F)cc1`, the Potency was inconclusive [inhibitor, single point]. For `Cc1ccc(-n2ncc3c(=O)n(CC(=O)N4CCCCCC4)cnc32)cc1`, the Potency was “inactive”. With `O=C(Nc1ccc(O)cc1)c1cc2ccccc2c(=O)s1` the Potency was inconclusive [inhibitor, partial curve].
